According to the supplement of paper PMC4604168 (melanoma cell lines):
Some of the results follow. Repeats are few or missing, and single values can be far off.

Tests used:
Assay in all cases: cell count relative to DMSO control; melanoma cells; higher = more viable cells
Details in all cases: library dose: standard library concentration; 72 h
G361 = tested on: G361
IPC-298 = tested on: IPC-298
IST-MEL1 = tested on: IST-MEL1
LB2518-MEL = tested on: LB2518-MEL
LOXIMVI = tested on: LOXIMVI
MEL-HO = tested on: MEL-HO
MZ2-MEL = tested on: MZ2-MEL
MeWo = tested on: MeWo
RPMI7951 = tested on: RPMI7951
RVH-421 = tested on: RVH-421
SkMel28 = tested on: SkMel28
SkMel2 = tested on: SkMel2
SkMel30 = tested on: SkMel30
SkMel5 = tested on: SkMel5
UACC257 = tested on: UACC257
UACC62 = tested on: UACC62
WM115 = tested on: WM115
WM1716 = tested on: WM1716
WM1745 = tested on: WM1745
WM3526 = tested on: WM3526
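Note: cells treated in 1,536-well plates, then fixed and DAPI-stained, with nuclei counted from automated high-throughput microscope images.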

Row | Compound | cell count (G361) [%] | cell count (IPC-298) [%] | cell count (IST-MEL1) [%] | cell count (LB2518-MEL) [%] | cell count (LOXIMVI) [%] | cell count (MEL-HO) [%] | cell count (MZ2-MEL) [%] | cell count (MeWo) [%] | cell count (RPMI7951) [%] | cell count (RVH-421) [%] | cell count (SkMel28) [%] | cell count (SkMel2) [%] | cell count (SkMel30) [%] | cell count (SkMel5) [%] | cell count (UACC257) [%] | cell count (UACC62) [%] | cell count (WM115) [%] | cell count (WM1716) [%] | cell count (WM1745) [%] | cell count (WM3526) [%]
1 | CC(=O)O[C@@]12CO[C@@H]1C[C@H](O)[C@@]1(C)C(=O)[C@H](O)C3=C(C)[C@@H](OC(=O)[C@H](O)[C@@H](NC(=O)OC(C)(C)C)c4ccccc4)C[C@@](O)([C@@H](OC(=O)c4ccccc4)[C@H]21)C3(C)C [Docetaxel] + NC(=O)Nc1cc(-c2cccc(F)c2)sc1C(=O)N[C@H]1CCCNC1 [AZD7762] (first compound 0.0005 µM, partner dose 0.1 µM) | 14.7 | 40 | 28 | 42.3 | 42.1 | 35.8 | 46.2 | 27.9 | 17.4 | 69.9 | 23.1 | 17.8 | 52.7 | 38.4 | 58.2 | 65.9 | 46.9 | 36.8 | 33.2 | 29.7
2 | Nc1nc(F)nc2c1ncn2[C@@H]1O[C@H](CO)[C@@H](O)[C@@H]1O [fludarabine] + Nc1cccc2c1CN(C1CCC(=O)NC1=O)C2=O [lenalidomide] (first compound 1 µM, partner dose 5 µM) | 89.1 | 66.7 | 62.2 | 90.9 | 80.1 | 83.4 | 86.7 | 81.7 | 63.5 | 73.8 | 1.64 | 1.77 | 13 | 16.1 | 23.8 | 60 | 83.8 | 98.4 | 105 | 18.6
3 | CO[C@H]1C[C@@H]2CC[C@@H](C)[C@@](O)(O2)C(=O)C(=O)N2CCCC[C@H]2C(=O)O[C@H]([C@H](C)C[C@@H]2CC[C@@H](OCCO)[C@H](OC)C2)CC(=O)[C@H](C)/C=C(\C)[C@@H](O)[C@@H](OC)C(=O)[C@H](C)C[C@H](C)/C=C/C=C/C=C/1C [everolimus] + Nc1ccn([C@@H]2O[C@H](CO)[C@@H](O)C2(F)F)c(=O)n1 [gemcitabine] (first compound 0.1 µM, partner dose 0.002 µM) | 38.3 | 30.9 | 38.1 | 57 | 63.6 | 46.6 | 57.9 | 32 | 76.7 | 56.1 | 34.4 | 65 | 72.5 | 64.1 | 77.4 | 71 | 63.2 | 50.3 | 49.7 | 67.3
4 | CC(=O)O[C@@]12CO[C@@H]1C[C@H](O)[C@@]1(C)C(=O)[C@H](O)C3=C(C)[C@@H](OC(=O)[C@H](O)[C@@H](NC(=O)OC(C)(C)C)c4ccccc4)C[C@@](O)([C@@H](OC(=O)c4ccccc4)[C@H]21)C3(C)C [Docetaxel] + CN(c1ncccc1CNc1nc(Nc2ccc3c(c2)CC(=O)N3)ncc1C(F)(F)F)S(C)(=O)=O [PF562271] (first compound 0.0005 µM, partner dose 0.4 µM) | 15 | 38.2 | 34.9 | 42.3 | 78.2 | 41.8 | 33.5 | 23.7 | 17.5 | 36.2 | 20.6 | 25 | 37.8 | 22.8 | 55.1 | 32.8 | 30.9 | 29.1 | 20.7 | 36.3
5 | CO[C@H]1C[C@@H]2CC[C@@H](C)[C@@](O)(O2)C(=O)C(=O)N2CCCC[C@H]2C(=O)O[C@H]([C@H](C)C[C@@H]2CC[C@@H](OCCO)[C@H](OC)C2)CC(=O)[C@H](C)/C=C(\C)[C@@H](O)[C@@H](OC)C(=O)[C@H](C)C[C@H](C)/C=C/C=C/C=C/1C [everolimus] + Cn1cncc1[C@@](N)(c1ccc(Cl)cc1)c1ccc2c(c1)c(-c1cccc(Cl)c1)cc(=O)n2C [tipifarnib] (first compound 0.1 µM, partner dose 0.05 µM) | 44.6 | 82.5 | 75.2 | 62.1 | 69.5 | 72.3 | 73.4 | 59.1 | 88.5 | 87.6 | 45.1 | 49.9 | 67.2 | 47.6 | 95.5 | 77.8 | 55.1 | 64.9 | 63.4 | 68.1
6 | CC(=O)c1c(C)c2cnc(Nc3ccc(N4CCNCC4)cn3)nc2n(C2CCCC2)c1=O [palbociclib] + NCC(=O)Nc1ccc(-n2nc(C(F)(F)F)cc2-c2ccc3c(ccc4ccccc43)c2)cc1 [OSU03012] (first compound 0.2 µM, partner dose 5 µM) | 55.3 | 52.8 | 62.1 | 52.6 | 72.1 | 74.2 | 63.1 | 55.8 | 82.4 | 66.2 | 26.6 | 39 | 52.2 | 38.4 | 71.1 | 65.5 | 47.4 | 39 | 70.8 | 40.7
7 | CO[C@H]1C[C@@H]2CC[C@@H](C)[C@@](O)(O2)C(=O)C(=O)N2CCCC[C@H]2C(=O)O[C@H]([C@H](C)C[C@@H]2CC[C@@H](OCCO)[C@H](OC)C2)CC(=O)[C@H](C)/C=C(\C)[C@@H](O)[C@@H](OC)C(=O)[C@H](C)C[C@H](C)/C=C/C=C/C=C/1C [everolimus] + Cc1cc(N2CCOCC2)cc2[nH]c(-c3c(NC[C@@H](O)c4cccc(Cl)c4)cc[nH]c3=O)nc12 [BMS536924] (first compound 0.1 µM, partner dose 1 µM) | 43.5 | 64.1 | 43.2 | 67.1 | 66.4 | 60.6 | 75.1 | 50.7 | 83.3 | 94 | 41.8 | 56.9 | 61.7 | 41.9 | 68.5 | 64 | 68.5 | 79.5 | 53.6 | 58.8
8 | Nc1ncn([C@H]2C[C@H](O)[C@@H](CO)O2)c(=O)n1 [decitabine] + COc1cc(Nc2ncc(F)c(Nc3ccc4c(n3)NC(=O)C(C)(C)O4)n2)cc(OC)c1OC [Tamatinib] (first compound 0.5 µM, partner dose 2 µM) | 69.4 | 62.9 | 47.3 | 65 | 17.8 | 59.4 | 76.4 | 61.2 | 24.1 | 77.8 | 61.4 | 74.7 | 87.2 | 40.5 | 78.2 | 59.9 | 55.4 | 51.3 | 33.6 | 63.4
9 | CC(=O)c1c(C)c2cnc(Nc3ccc(N4CCNCC4)cn3)nc2n(C2CCCC2)c1=O [palbociclib] + CC1(C)NC(=O)N(c2ccc([N+](=O)[O-])c(C(F)(F)F)c2)C1=O [nilutamide] (first compound 0.2 µM, partner dose 5 µM) | 59.5 | 79 | 83.4 | 55.8 | 77 | 70.8 | 86.6 | 56.4 | 52 | 52.2 | 33.3 | 51.3 | 65 | 35.7 | 61.6 | 56.7 | 43.1 | 35.6 | 59.4 | 45.2
10 | Nc1ncn([C@H]2C[C@H](O)[C@@H](CO)O2)c(=O)n1 [decitabine] + O=C(Nc1cccc(Cl)c1)Nc1ncc(CCNc2ncnc3ccsc23)s1 [SNS314] (first compound 0.5 µM, partner dose 0.004 µM) | 62.3 | 51.3 | 45.3 | 68.8 | 74.1 | 66.8 | 69.1 | 66.3 | 64.3 | 76 | 56.1 | 77.5 | 83.7 | 73.1 | 65.1 | 90 | 33.9 | 43.1 | 72.5 | 76.2
11 | Nc1ccn([C@@H]2O[C@H](CO)[C@@H](O)C2(F)F)c(=O)n1 [gemcitabine] + C=CCn1c(=O)c2cnc(Nc3ccc(N4CCN(C)CC4)cc3)nc2n1-c1cccc(C(C)(C)O)n1 [MK1775] (first compound 0.002 µM, partner dose 0.1 µM) | 23.1 | 31.8 | 28.1 | 40.3 | 38.1 | 41.1 | 65.4 | 27.3 | 19.9 | 44.6 | 60.3 | 84.2 | 86.6 | 33.6 | 102 | 51.7 | 53.8 | 42 | 26.8 | 82.6
12 | Nc1ncn([C@H]2C[C@H](O)[C@@H](CO)O2)c(=O)n1 [decitabine] + Nc1cccc2c1CN(C1CCC(=O)NC1=O)C2=O [lenalidomide] (first compound 0.5 µM, partner dose 5 µM) | 90.2 | 45.1 | 84.1 | 80.5 | 93.3 | 78.6 | 69.7 | 79.6 | 79 | 81.5 | 76.5 | 87.2 | 111 | 82.5 | 121 | 57 | 65.7 | 78.2 | 58.8 | 102
13 | CC(=O)O[C@@]12CO[C@@H]1C[C@H](O)[C@@]1(C)C(=O)[C@H](O)C3=C(C)[C@@H](OC(=O)[C@H](O)[C@@H](NC(=O)OC(C)(C)C)c4ccccc4)C[C@@](O)([C@@H](OC(=O)c4ccccc4)[C@H]21)C3(C)C [Docetaxel] + C=CCn1c(=O)c2cnc(Nc3ccc(N4CCN(C)CC4)cc3)nc2n1-c1cccc(C(C)(C)O)n1 [MK1775] (first compound 0.0005 µM, partner dose 0.1 µM) | 15.4 | 49.3 | 28 | 42.9 | 45.2 | 38.5 | 56.9 | 20.9 | 21.1 | 41.3 | 34.4 | 13.9 | 52.8 | 28.5 | 65.4 | 69.6 | 32.2 | 40.5 | 29.3 | 34.1
14 | Nc1ncn([C@H]2C[C@H](O)[C@@H](CO)O2)c(=O)n1 [decitabine] + OCc1c[nH]c2ccccc12 [Indole-3-carbinol] (first compound 0.5 µM, partner dose 4 µM) | 78.5 | 54.2 | 85.3 | 73.8 | 126 | 86.5 | 87.4 | 64.4 | 83 | 86 | 82.6 | 108 | 103 | 84.6 | 112 | 48 | 82.8 | 84.6 | 93 | 107
